Values marked as one replicate rest on one cluster of the flow cell; about a third of the high ones do not repeat.
Test system: ATP
Assay: switch fluorescence ratio, 500 uM ATP over buffer (Cy3 cluster intensity, sum of 5 cycles each) (fold (ratio)); higher = stronger signal-on switching upon ATP binding; sequences stand for … in TCGTCGGCAGCGTCAGATGTGTATAAGAGACAGTTTTTTTTTTTTTTTTTTTTTTTTT…TC
Conditions: aptamer strand: ATP DNA aptamer (quencher-CACCTGGGGGAGTATTGCGGAGGAAGG + anchor), 100 nM annealed; ATP concentration: 500 uM; one replicate
Outline: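 Between each of five buffer/ATP cycles, the flow-cell was stripped with NaOH and re-annealed. Each cycle imaged Cy3-labelled switching-strand clusters, annealed to 100 nM quencher-labelled ATP aptamer on a modified Illumina MiSeq flow-cell, first in selection buffer and then after 15 min with 500 uM ATP at 22 °C. The fluorescence ratio is summed target-cycle over summed buffer-cycle Cy3 intensity per cluster, averaged per switch-domain sequence, with clusters outside 100-1000 RFU excluded.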
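Note: ATP exposure 15 min at 22 °C before imaging.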

Sequence	switch fluorescence ratio
TGAGTCAGTC	0.974
GTGGTATTCA	0.975
GACACGAAAT	1.15
GCTAGCCGA	0.98
TATAACGCGG	1.02
TACGAACGCG	1.2
ATGCATGGTG	1.04
TATTGTCGGT	0.968
GGCAGGCAGT	0.99
GCATAAGTAA	1
GGGGTAACCA	0.983
TCGTATGAGA	1.01
TTCGCCCAGG	6.92
CTGTTCAGGT	1
AGGGTAGAG	1.01
AGTCAAAAAC	0.983
GCCCCCGACT	1.03
CATCTAGTGT	1.01
CGTTTTGTCC	0.989
TCGGGAAATG	1.25
TCGGCGCGAA	1.19
TCCCGGCCCG	0.965
CTTTTGACAT	0.952

Sequence	switch fluorescence ratio
TCGTGTTGCG	1.05
CCCAGCAGAG	2.03
TTGAAATTA	1.02
TTACAAGAAT	0.967
CAAGTTGTT	0.959
CGATTGTCAA	0.929
TTATATGTAC	1.1
TATAGAGAGC	0.972
CGTTATGTCT	1.07
AGGCGATGAG	1.01
GATGGATCCT	0.951
CGAGGTCGCT	1
TTCGTTGGG	0.995
CTGTATTGCC	0.924
TGTTGGTCT	0.978
GCTTAAAAAG	1.02
TCGGTCTTC	0.987
TAGATAGTGT	1
CAGGGTATTG	0.982
AAAAATCAAC	1.01
CGGTGGCG	1.06
AACCTTTTAG	1.01
CTCGGCAAAT	5.57

Sequence	switch fluorescence ratio
GACTATCACT	1.1
GTACGTGGCG	1.04
GGTCTGCTGA	0.979
TACCGATGTT	1.05
GGGACACCAA	1.08
ATTAAATGCT	0.986
GGGGCCACGT	1
TCCATGTCTT	0.962
GCATACCACT	1.09
GAAGCTACAT	1.04
AGTGTTCTGA	0.972
CGGGAGATAT	1.03
CTTTTAACTA	1.05
TGATTTATGC	0.955
CCGTATTA	1.2
CGCGTGGGGT	1.04
GAGCCGAGCT	0.957
ATTCTTGGTT	0.955
ACATGTTCTA	1.04
GGATGTGGTG	0.989
CCCAGGTCTG	1.88
GGACGTTGAC	1.23
TTATGCTCTG	1.01

Sequence	switch fluorescence ratio
AAAGGGCACG	0.925
TTCGAGTTCA	1.01
ACGCTAAGAA	1.18
TCAGTATATA	0.969
CCCGAAGAAA	4.2
TGCGCTAACG	1.04
TGTGGGTGC	0.992
GGAGATACTC	1.09
GTACGACACT	1.75
GCATGCTCAG	1.04
ATGGTGAAA	0.991
CTCTATCATT	1.01
TTGGTAGCA	0.927
TTCTAATCG	0.939
CGATCTTAAT	0.987
CGAATTCCAT	1.01
GATTTGAAAT	0.946
GGTGACGTTT	1.06
AGGTTACAGA	1.02
TCTGAGCACA	1.26
GGGATTAGGC	1.03
ATCTTGATGT	0.972
GTTAAAA	1.01

Sequence	switch fluorescence ratio
CACCGGATCT	1.03
GCTGGATCTA	1.02
TTGTCCCGGG	1.13
CCCTGCCGCT	1.13
CTAGGCATGG	1.01
GGCGGTACCT	0.995
GTGGGTTCAA	1.01
CCACTTACCG	1.23
ACGTATAGCT	1.13
GCGGCCCAAC	1.02
GTGGGCACAT	0.961
TTACCGAGTT	0.975
GCTCCGCTCG	3.5
TAATTGTGGG	0.961
TTGGGCATAA	1.01
ACTGAGAGA	0.968
GATAGCGATG	1.02
GGTTGATCGG	1.05
GTGGATCAGG	1.06
ACTTAGGGCT	1.01
GCAACGGGCT	1
AAGTAATTTT	0.971
CCCTCTGTTG	1.14

Sequence	switch fluorescence ratio
CTCTTTTCGG	0.988
CGGATCGGCA	1.02
TTTCGCGGGG	1.05
GCCTAGAGGC	1
CGCAGGAAGC	1.28
ACACCCAGTA	1.11
GCAGCCGCAG	1.28
TTATGTAAGA	0.948
CCCGGGAACA	1.14
CTACACTGCT	0.926
CAGAGCCTA	0.964
TTCGTCCTGT	0.999
CCAATGGGCT	0.99
TTCTTTAGTA	0.924
CTTGGCCGTC	0.984
TAACATTGGC	0.938
ATTATCGGAC	0.989
CATAGCACGG	1.03
GTGCATTTTG	1.03
TGTTTTGTA	0.949
TTTTCAACGT	1
GGTTCGGGTT	0.945
GTGGGAGGCC	1.04

Sequence	switch fluorescence ratio
ATCATTAGCA	1
CAGTATATGC	1.05
TGTGGTAAGC	0.989
TAGTTCAGAT	1
TGCGATATTC	1.45
GTTATAATAG	1.01
CATGATCAT	0.949
GGGAGTCTTT	0.962
CGGGTTGTGC	0.957
TCCGTTTATT	1.07
TATCCCGCT	1.11
GATACTTAAT	0.947
AGAGGTTTGC	1.05
CGCTAGGTTT	1.03
CCGTATTAAG	1.03
TTGCCGGGTG	1.5
TCGATATGCG	0.923
TAAATGTAAA	0.997
GAGCCGGTTT	0.982
CTTACGCCCA	1.1

From the supplement of paper PMC10126150
